# According to PubChem BioAssay (NCATS):
# Inconclusive means that the source gave no clear call. Such entries were picked first, then a sample of the others. For some of these results: Potencies beside an inconclusive call are fits to weak or partial responses and may not hold up. Activity calls are given as the source filed them. Unless noted, calls come from the whole dose curve; as a rule, active = well fitted curve in the direction sought with a large enough effect; inconclusive = small, poorly fitted or top-dose-only effect, or another doubt; inactive = no such curve, though single readings can be large; an effect the other way counts as inactive or inconclusive.
# What was measured:
# [1] = qHTS Assay for Identification of Small Molecule Agonists for Hypoxia Response Element Signaling Pathway (AID 914; active = well fitted activation curve with a large enough effect in the signal ratio, with a control signal flat, not every such curve was filed as active; inconclusive = small, poorly fitted or top-dose-only effect, or effect the other way, or a change in a side signal; the % refers to the signal ratio; note: potency is the fitted concentration of half-maximal effect; for activation: top concentration of the series differs between compounds; % of control where 0% means no effect); details: ME-180 HRE-bla reporter, beta-lactamase ratio, CoCl2, 17 h; activation: stronger effect = higher value
# Procedure, shortened: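 In Opti-MEM containing 0.5% dialyzed FBS and 10 mM HEPES, ME-180 HRE-bla cells received a compound titration and EC50 CoCl2. They were incubated 17 hours, then CCF4-loaded 2.5 hours at room temperature before ratio reading.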
# [2] = biological target: DNA repair nuclease/redox regulator APEX1 (Homo sapiens) (UniProt P27695); assay: Confirmation qHTS Assay for Inhibitors of the Human Apurinic/apyrimidinic Endonuclease 1 (APE1) (AID 2572); details: purified APE1, fluorogenic abasic-site DNA cleavage; series mostly up to 57.1 µM; note: nearly all actives have a fitted effect of over 30% in size; note: potency is the fitted concentration of half-maximal effect;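 for activity change, negative = inhibition: fluorescence gain from purified APE1 cutting a TAMRA/BHQ-2 THF abasic duplex; % is set by controls: 0 for no effect and ±100 for the full control effect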
# Chain of UniProt P27695 (P27695 whole entry, looked up): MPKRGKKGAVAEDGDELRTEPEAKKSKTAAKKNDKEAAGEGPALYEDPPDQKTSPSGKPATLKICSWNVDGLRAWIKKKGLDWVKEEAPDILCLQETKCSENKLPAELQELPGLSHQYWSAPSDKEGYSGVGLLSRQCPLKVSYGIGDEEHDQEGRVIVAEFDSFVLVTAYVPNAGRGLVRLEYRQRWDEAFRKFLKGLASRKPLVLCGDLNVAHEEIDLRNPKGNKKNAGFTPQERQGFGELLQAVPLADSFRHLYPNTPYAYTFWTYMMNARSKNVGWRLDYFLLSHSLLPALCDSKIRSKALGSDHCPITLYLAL
# Procedure, shortened: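 Inhibition is measured on a short double-stranded THF-site oligo, 50 nM final, whose incision relieves BHQ-2 quenching of TAMRA. After 15 min enzyme–compound preincubation at RT, three reads a minute apart are taken.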
# [3] = biological target: DNA repair nuclease/redox regulator APEX1 (Homo sapiens) (UniProt P27695); assay: qHTS FP-Based Assay for Inhibitors of the Human Apurinic/apyrimidinic Endonuclease 1 (APE1) (AID 2573); details: APE1 binding to TAMRA-labelled double-stranded DNA, fluorescence polarization displacement; series mostly up to 28.5 µM; note: potency is the fitted concentration of half-maximal effect
# [4] = biological target: DNA polymerase iota (Homo sapiens) (UniProt Q9UNA4); assay: qHTS for Inhibitors of Polymerase Iota: Confirmatory Assay for Cherry-picked Compounds (AID 720496); details: Pol iota primer extension, TAMRA/BHQ fluorescence; note: potency is the fitted concentration of half-maximal effect
# Chain of UniProt Q9UNA4 (Q9UNA4 whole entry, looked up): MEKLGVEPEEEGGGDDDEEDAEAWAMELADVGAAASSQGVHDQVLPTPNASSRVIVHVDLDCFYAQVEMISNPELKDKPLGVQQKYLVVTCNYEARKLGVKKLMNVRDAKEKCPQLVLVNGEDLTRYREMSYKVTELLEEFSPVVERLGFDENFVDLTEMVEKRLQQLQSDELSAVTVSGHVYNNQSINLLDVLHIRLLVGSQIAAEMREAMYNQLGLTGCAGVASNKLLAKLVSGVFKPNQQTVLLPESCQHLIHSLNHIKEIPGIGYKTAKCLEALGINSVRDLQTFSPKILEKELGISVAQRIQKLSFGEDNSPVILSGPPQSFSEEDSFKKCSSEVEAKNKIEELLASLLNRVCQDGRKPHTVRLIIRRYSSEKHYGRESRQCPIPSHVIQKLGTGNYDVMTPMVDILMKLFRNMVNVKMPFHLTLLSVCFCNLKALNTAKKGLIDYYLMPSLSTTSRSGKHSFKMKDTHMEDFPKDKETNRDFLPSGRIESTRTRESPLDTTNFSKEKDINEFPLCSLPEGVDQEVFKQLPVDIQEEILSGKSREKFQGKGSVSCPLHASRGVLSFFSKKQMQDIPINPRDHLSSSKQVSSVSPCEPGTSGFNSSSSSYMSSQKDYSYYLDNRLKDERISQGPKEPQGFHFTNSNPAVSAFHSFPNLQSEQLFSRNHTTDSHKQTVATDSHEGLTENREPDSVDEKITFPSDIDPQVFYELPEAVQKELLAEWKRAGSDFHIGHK
# Procedure, shortened: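 Enzyme (10 nM Pol iota) and compound sit together for 15 min at room temperature. Adding annealed primer/TAMRA-reporter/BHQ-2-template substrate, 50 nM final, starts the reaction, which is followed by fluorescence over 10 min.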
# [5] = biological target: DNA polymerase eta (Homo sapiens) (UniProt Q9Y253); assay: qHTS for Inhibitors of Polymerase Eta: Confirmatory Assay for Cherry-picked Compounds (AID 720502); details: Pol eta primer extension, TAMRA/BHQ fluorescence, 10 min; note: potency is the fitted concentration of half-maximal effect
# Chain of UniProt Q9Y253 (Q9Y253 whole entry, looked up): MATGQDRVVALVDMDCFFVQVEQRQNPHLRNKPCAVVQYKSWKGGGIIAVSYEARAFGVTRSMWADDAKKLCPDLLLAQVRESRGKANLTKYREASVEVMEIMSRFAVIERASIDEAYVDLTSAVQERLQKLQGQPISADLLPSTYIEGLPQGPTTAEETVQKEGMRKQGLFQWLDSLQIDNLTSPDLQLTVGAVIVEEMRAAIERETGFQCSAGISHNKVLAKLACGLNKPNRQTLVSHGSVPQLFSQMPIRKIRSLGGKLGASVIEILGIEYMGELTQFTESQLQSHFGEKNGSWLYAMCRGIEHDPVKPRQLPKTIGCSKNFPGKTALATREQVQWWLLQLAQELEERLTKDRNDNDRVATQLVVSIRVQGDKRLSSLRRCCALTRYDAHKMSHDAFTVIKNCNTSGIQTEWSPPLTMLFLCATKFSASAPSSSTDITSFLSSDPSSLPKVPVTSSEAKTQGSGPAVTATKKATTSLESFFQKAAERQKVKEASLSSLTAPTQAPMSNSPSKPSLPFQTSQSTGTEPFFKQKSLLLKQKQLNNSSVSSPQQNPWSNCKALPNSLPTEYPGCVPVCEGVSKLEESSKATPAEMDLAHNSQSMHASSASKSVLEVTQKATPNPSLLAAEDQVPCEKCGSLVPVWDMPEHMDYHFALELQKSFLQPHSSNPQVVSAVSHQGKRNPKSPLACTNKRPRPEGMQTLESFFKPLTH
# Procedure, shortened: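 Compounds are preincubated 15 min at room temperature with 10 nM human Pol eta, with buffer-only wells serving as negative control. Adding 50 nM final substrate starts the reaction, and TAMRA fluorescence is read over 10 min.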
# [6] = biological target: Cytochrome P450 1A2 (Homo sapiens) (UniProt P05177); assay: p450-cyp1a2 (AID 410; calls by dose curve;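 note: top concentration of the series differs between compounds; -100% = full effect of reference inhibitor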); details: recombinant CYP1A2, luciferin-ME demethylation, luminescence; series mostly up to 57 µM
# Chain of UniProt P05177 (P05177 whole entry, looked up): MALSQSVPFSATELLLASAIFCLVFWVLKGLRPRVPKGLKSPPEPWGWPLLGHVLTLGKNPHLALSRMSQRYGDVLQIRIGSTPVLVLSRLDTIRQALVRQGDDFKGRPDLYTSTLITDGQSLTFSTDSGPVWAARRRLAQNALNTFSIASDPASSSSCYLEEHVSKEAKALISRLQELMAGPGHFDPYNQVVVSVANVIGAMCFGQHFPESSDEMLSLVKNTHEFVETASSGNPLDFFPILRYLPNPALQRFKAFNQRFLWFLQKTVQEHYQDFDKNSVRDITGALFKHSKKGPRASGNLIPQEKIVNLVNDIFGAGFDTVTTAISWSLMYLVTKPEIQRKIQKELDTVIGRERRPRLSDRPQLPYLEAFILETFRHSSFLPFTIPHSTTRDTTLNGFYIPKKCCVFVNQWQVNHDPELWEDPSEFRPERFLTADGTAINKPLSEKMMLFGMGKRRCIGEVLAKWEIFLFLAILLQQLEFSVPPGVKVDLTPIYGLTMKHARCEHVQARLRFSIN
# Procedure, shortened: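 20nM CYP1A2, 100uM Luciferin-ME (=Km), 100mM KPO4; cpd 10 min RT; +NADPH regen, 60 min RT; stop/detect 20 min; luminescence. Normalized to furafylline 57 uM = full inhibition.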
# [7] = NFAT Signaling Pathway (AID 444; active = well fitted curve in either direction with a large enough effect, not every such curve was filed as active; inconclusive = small, poorly fitted or top-dose-only effect, or another doubt;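 note: carbachol stimulus at about its EC50 of 1 µM final; % is set by controls: 0 for no effect and ±100 for the full control effect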); details: Jurkat NFAT-bla M1, carbachol, beta-lactamase ratio, 5 h
# Procedure, shortened: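 Read-out: CCF4 FRET ratio (460 nm/530 nm) after 1 h RT dye loading, used for %activity and AC50 from titration series. Cells: Jurkat NFAT-β-lactamase/M1 line, treated with compound plus 1 uM carbachol for 5 h, 37 °C.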
# [8] = biological target: Mitogen-activated protein kinase 10 (Mus musculus) (UniProt Q61831); assay: JNK3 AlphaScreen Assay (AID 530; active = well fitted curve in either direction with a large enough effect, not every such curve was filed as active; inconclusive = small, poorly fitted or top-dose-only effect, or another doubt;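 note: kinase came from lysate of stimulated human HepG2 cells; signal reports phosphorylation of biotinylated GST-cJun 1-79 at Ser73 with 10 µM ATP; potency is the fitted concentration of half-maximal effect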); details: JNK3 lysate, c-Jun phosphorylation; activity change, negative = inhibition: at 57.1 µM (top of the series)
# Procedure, shortened: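 Kinase buffer: 20 mM Tris-HCl pH 7.6, 10 mM MgCl2, 1 mM DTT, 0.1 mM Na3VO4, 0.01% Tween-20; ATP 10 uM. Substrate biotin-GST-cJun(1-79), enzyme from activated HepG2 lysates. Detection by Ser73 phospho-antibody AlphaScreen.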
# [9] = biological target: 3',5'-cyclic-AMP phosphodiesterase 4B (Homo sapiens) (UniProt Q07343); assay: qHTS Assay for Inhibitors of PDE-IV (AID 607; active = well fitted activation curve with a large enough effect in the main read-out, with a control signal flat, not every such curve was filed as active; inconclusive = small, poorly fitted or top-dose-only effect, or effect the other way, or a change in a side signal; note: potency is the fitted concentration of half-maximal effect); details: HEK293 ACTOne CNG channel cells, membrane potential fluorescence; activation (PDE inhibition): at 22.9 µM (top of the series)
# Chain of UniProt Q07343 (Q07343 whole entry, looked up): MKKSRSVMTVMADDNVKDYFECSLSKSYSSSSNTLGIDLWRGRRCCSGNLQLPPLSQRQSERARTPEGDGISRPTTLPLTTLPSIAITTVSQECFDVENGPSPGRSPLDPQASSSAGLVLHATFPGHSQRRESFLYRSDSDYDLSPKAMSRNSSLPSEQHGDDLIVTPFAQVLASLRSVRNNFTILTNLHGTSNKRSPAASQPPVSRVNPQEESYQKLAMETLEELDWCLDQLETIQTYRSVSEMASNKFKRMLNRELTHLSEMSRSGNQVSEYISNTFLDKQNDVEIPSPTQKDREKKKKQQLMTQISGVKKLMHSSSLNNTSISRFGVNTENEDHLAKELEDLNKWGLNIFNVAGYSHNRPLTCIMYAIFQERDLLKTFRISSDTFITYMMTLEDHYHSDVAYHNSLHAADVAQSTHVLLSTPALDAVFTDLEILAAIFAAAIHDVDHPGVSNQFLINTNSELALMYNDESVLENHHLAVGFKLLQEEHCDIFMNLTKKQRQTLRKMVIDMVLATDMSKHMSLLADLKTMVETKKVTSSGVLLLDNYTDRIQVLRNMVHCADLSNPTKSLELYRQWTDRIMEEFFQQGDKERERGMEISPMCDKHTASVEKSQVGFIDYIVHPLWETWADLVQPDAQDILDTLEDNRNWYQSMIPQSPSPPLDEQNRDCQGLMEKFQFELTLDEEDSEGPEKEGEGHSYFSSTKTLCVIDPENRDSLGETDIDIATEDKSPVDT
# Procedure, shortened: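 HEK293 ACTOne cells with CNG channel (1000/well), endogenous PDE4; membrane potential dye, compounds up to 22.9 uM final. Fluorescence Ex 535/Em 590; RO 20-1724 (100 uM final) as reference.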
# [10] = qHTS Assay for Identification of Small Molecule Antagonists for Thrombopoietin (TPO) Signaling Pathway (AID 918); details: TPO-dependent cell signaling reporter, antagonist mode; activity change, negative = inhibition: at 38.5 µM (top of the series); note: nearly all actives have a fitted effect of over 60% in size
# Procedure, shortened: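 Luminescence read-out: GPIIb-promoter luciferase in Ba/F3 cells carrying human TPO receptor. Compounds added with 26 pM TPO (EC50), 24 hrs, 37 C, 5% CO2; cells deprived of IL-3 overnight beforehand. Inhibition of signal scored.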
# [11] = biological target: Ubiquitin carboxyl-terminal hydrolase 1 (Homo sapiens) (UniProt O94782); assay: Inhibitors of USP1/UAF1: Pilot qHTS (AID 504865); details: purified USP1/UAF1, Ub-rhodamine cleavage fluorescence; series mostly up to 54.9 µM;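 note: rhodamine fluorescence freed from ubiquitin-rhodamine substrate followed over time; potency is the fitted concentration of half-maximal effect; nearly all actives have a fitted effect of over 35% in size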
# Chain of UniProt O94782 (O94782 whole entry, looked up): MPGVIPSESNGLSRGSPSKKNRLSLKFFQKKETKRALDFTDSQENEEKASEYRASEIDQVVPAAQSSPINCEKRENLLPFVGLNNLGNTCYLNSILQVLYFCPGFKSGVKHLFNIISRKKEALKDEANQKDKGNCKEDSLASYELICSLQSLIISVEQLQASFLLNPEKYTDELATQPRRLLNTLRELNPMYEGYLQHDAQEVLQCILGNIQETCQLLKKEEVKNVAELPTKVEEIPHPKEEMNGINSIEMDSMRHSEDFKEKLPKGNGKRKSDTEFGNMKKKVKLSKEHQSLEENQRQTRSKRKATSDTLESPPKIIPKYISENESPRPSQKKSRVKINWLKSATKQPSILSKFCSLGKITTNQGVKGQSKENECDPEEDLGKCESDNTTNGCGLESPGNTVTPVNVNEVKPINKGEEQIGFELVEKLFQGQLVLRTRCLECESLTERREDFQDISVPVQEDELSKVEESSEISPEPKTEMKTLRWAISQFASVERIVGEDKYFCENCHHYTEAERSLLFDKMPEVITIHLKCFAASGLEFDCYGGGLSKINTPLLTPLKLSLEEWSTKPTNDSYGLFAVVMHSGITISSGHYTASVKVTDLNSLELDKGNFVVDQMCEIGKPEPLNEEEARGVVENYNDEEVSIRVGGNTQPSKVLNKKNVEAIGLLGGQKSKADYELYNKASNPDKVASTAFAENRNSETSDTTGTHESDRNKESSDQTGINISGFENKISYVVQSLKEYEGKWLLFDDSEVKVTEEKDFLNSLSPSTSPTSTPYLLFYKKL
# Procedure, shortened: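 Enzyme-free wells gave the negative control, while test wells held 1nM USP1/UAF1 preincubated with compound for 15 min at room temperature. Ub-Rho at 150nM final started the reaction, and fluorescence at 480/540 nm was recorded kinetically.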
# [12] = AP1 Signaling Pathway (AID 357; active = well fitted curve in either direction with a large enough effect, not every such curve was filed as active; inconclusive = small, poorly fitted or top-dose-only effect, or another doubt;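 note: ME-180 reporter cells stimulated with EGF at its EC50 level; top concentration of the series differs between compounds; % is set by controls: 0 for no effect and ±100 for the full control effect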); details: ME-180 (cervical carcinoma) AP-1-bla reporter, EGF-induced, beta-lactamase ratio, 5 h; at 17.2 µM (top of the series) unless noted
# Procedure, shortened: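 First, ME-180 AP-1-bla cells were cultured overnight at 37 °C in low-serum Opti-MEM. Next, titrated compounds with EC50 EGF were incubated 5 hours. Finally, CCF4 was added for 2.5 hours and the 460/530 nm ratio recorded.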
# Tags give direction and shape of the fitted curve or compound fluorescence and quenching.
smiles,measurement,setting,value
CCc1cc(=O)oc2cc(C)c(CN3CCCC3)c(O)c12,activation,[1],inconclusive: -32.8%
same,Potency,[2],"inconclusive: 0.141 µM [inhibitor, full curve, poor fit]"
same,Potency,[3],"inconclusive: 22.4 µM [inhibitor, single point]"
same,Potency,[4],"inconclusive: 75.2 µM [inhibitor, partial curve]"
same,Potency,[5],active: 30.1 µM
Cc1c(N)cc(N)cc1C(=O)O,Potency,[2],inactive
CC(=O)C1=C(O)C(=O)N(Cc2ccccc2)C1c1ccco1 (stereo not given),Potency,[2],"inconclusive: 6.31 µM [inhibitor, partial curve]"
same,Potency,[3],inactive
O=C1CC(c2ccc(O)c(O)c2)Oc2cc(O)cc(O)c21 (stereo not given),Potency,[2],"inconclusive: 15.8 µM [inhibitor, partial curve]"
same,Potency,[3],inactive
O[C@@](CCN1CCCCC1)(c1ccccc1)C1CCCCC1,Potency,[6],inactive
same,"activity change, negative = inhibition",[7]; at 17.2 µM (top of the series),active: -51.7%
same,"activity change, negative = inhibition",[7]; at 38 µM (top of the series),active: -75.1%
same,Potency,[8],"inconclusive: 7.94 µM [activator, full curve, poor fit]"
same,Potency,[9],"inconclusive: 9.51 µM [rising, partial curve]"
same,"activity change, negative = inhibition",[10],inconclusive: -17.6% [phenotype inactive]
same,Potency,[2],inactive
same,Potency,[3],"inconclusive: 5.01 µM [inhibitor, partial curve, poor fit]"
same,Potency,[11],"inconclusive: 35.5 µM [inhibitor, partial curve, poor fit]"
O=C(CSc1nccc(=O)[nH]1)N1N=C2/C(=C/c3ccco3)CCCC2C1c1ccco1 (stereo not given),Potency,[2],active: 8.91 µM
same,Potency,[3],inactive
same,Potency,[4],active: 37.7 µM
CCn1cc(C(=O)NCc2ccco2)c(=O)c2cc(F)c(N3CCN(C(=O)c4ccco4)CC3)cc21,"activity change, negative = inhibition",[12],inconclusive: -34.4% [inhibitor]
same,Potency,[1],"inconclusive: 3.16 µM [inhibitor, full curve, poor fit]"
same,Potency,[2],"inconclusive: 31.6 µM [inhibitor, partial curve, poor fit]"
